Laboratory results from a collection of fitness landscapes (doi:10.1016/j.celrep.2020.107928).
Over roughly 81,000 sequences, “one-hybrid fitness for binding NBS DNA” has its median near -0.1; the highest 2% begin near 0.36. Some of the results follow.

B1: Caulobacter ParB omega fusion; a variant is named by its letters at X, in order, B8GW30 (parent)
chain: MESVVVGEPGMSEGRRGLGRGLSALLGEVDAAPAQAPGEQLGGSREAPIEILQRNPDQPRRTFREEDLEDLSNSIREKGVLQPILVRPSPDTAGEYQIVAGERAWRAAQRAGLKTVPIMVRELDDLAVLEIGIIENVQRADLNVLEEALSYKVLMEKFERTQENIAQTIGKSXSHVANXMRLLXLPDEVQSYLVSGELTAXHARAIAAAADPVALAKQIIEGGLSVRETEALARKAPNLSAGKSKGGRPPRVKDTDTQALESDLSSVLGLDVSIDHRGSTGTLTITYATLEQLDDLCNRLTRGI

Variants of: B1
Test: one-hybrid fitness for binding NBS DNA (the Noc-binding site; scaled: cognate 1, non-cognate 0); higher = stronger binding
Conditions: with NBS DNA site
Method in brief: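 On M9-minus-histidine containing 0.1 mM IPTG and 5 mM 3-AT, E. coli USO cells with a HIS3 reporter, site 19 bp from the promoter, grew 48 hours at 37°C to select Caulobacter ParB libraries randomised at four specificity codons. Plasmids from before and after were Illumina-sequenced, with three replicate libraries pooled and variants under 10 reads left out. Fitness is the log change in variant-to-wild-type read ratio, rescaled against cognate and non-cognate.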

Row | Variant | one-hybrid fitness for binding NBS DNA
1 | RYIK | ≤ 0.2
2 | DKLP | ≤ 0.2
3 | IVDI | ≤ 0.2
4 | GALK | ≤ 0.2
5 | HSLI | ≤ 0.2
6 | ARVA | ≤ 0.2
7 | IETA | ≤ 0.2
8 | TGKA | ≤ 0.2
9 | CIQT | ≤ 0.2
10 | DRTV | ≤ 0.2
11 | NEHV | ≤ 0.2
12 | ADNM | ≤ 0.2
13 | QHHM | ≤ 0.2
14 | RSMS | 0.351
15 | QLNY | ≤ 0.2
16 | HTYA | ≤ 0.2
17 | TMWT | ≤ 0.2
18 | VFIG | ≤ 0.2
19 | PQRT | ≤ 0.2
20 | SHHF | ≤ 0.2
21 | IGRC | ≤ 0.2
22 | FPAH | ≤ 0.2
23 | PKAR | ≤ 0.2
24 | TSGR | ≤ 0.2
25 | SVCY | ≤ 0.2
26 | QEEL | ≤ 0.2

Row | Variant | one-hybrid fitness for binding NBS DNA
27 | GQQI | ≤ 0.2
28 | HVRF | ≤ 0.2
29 | HLIY | ≤ 0.2
30 | YVTA | ≤ 0.2
31 | FRIL | ≤ 0.2
32 | HSTC | ≤ 0.2
33 | AAHS | ≤ 0.2
34 | LHQT | ≤ 0.2
35 | DWDS | ≤ 0.2
36 | ISLG | ≤ 0.2
37 | PWME | ≤ 0.2
38 | VKTR | ≤ 0.2
39 | AQTS | ≤ 0.2
40 | VEIS | ≤ 0.2
41 | RWDW | ≤ 0.2
42 | QGSD | ≤ 0.2
43 | HRYA | ≤ 0.2
44 | HYLS | ≤ 0.2
45 | PSFG | ≤ 0.2
46 | VLSY | ≤ 0.2
47 | MSTV | ≤ 0.2
48 | PRMA | ≤ 0.2
49 | RLHD | ≤ 0.2
50 | FSEG | ≤ 0.2
51 | TRKD | ≤ 0.2
52 | AQSI | ≤ 0.2

Row | Variant | one-hybrid fitness for binding NBS DNA
53 | VWPF | ≤ 0.2
54 | TICW | ≤ 0.2
55 | RVFR | 0.34
56 | QVQS | ≤ 0.2
57 | MLFL | ≤ 0.2
58 | KYPR | ≤ 0.2
59 | FPAQ | ≤ 0.2
60 | EMSE | ≤ 0.2
61 | VTVW | ≤ 0.2
62 | TAIL | ≤ 0.2
63 | NRET | ≤ 0.2
64 | QLQE | ≤ 0.2
65 | IAAR | ≤ 0.2
66 | PAQI | ≤ 0.2
67 | VRIG | ≤ 0.2
68 | TWMC | ≤ 0.2
69 | EANS | ≤ 0.2
70 | SCAT | ≤ 0.2
71 | HEYR | ≤ 0.2
72 | TPND | ≤ 0.2
73 | QAHW | ≤ 0.2
74 | GDCR | ≤ 0.2
75 | YTIS | ≤ 0.2
76 | ALLA | ≤ 0.2
77 | QDRR | 0.275
78 | CPMK | ≤ 0.2

Row | Variant | one-hybrid fitness for binding NBS DNA
79 | TIRQ | ≤ 0.2
80 | SFSI | ≤ 0.2
81 | QMKC | 0.383
82 | QHSD | ≤ 0.2
83 | PTPN | ≤ 0.2
84 | RNGH | ≤ 0.2
85 | AHHN | ≤ 0.2
86 | TPLQ | ≤ 0.2
87 | NVSI | ≤ 0.2
88 | PCQI | ≤ 0.2
89 | QLSR | 0.464
90 | TCKG | ≤ 0.2
91 | QTII | ≤ 0.2
92 | LLAD | ≤ 0.2
93 | LETR | ≤ 0.2
94 | RYNK | ≤ 0.2
95 | GLQR | ≤ 0.2
96 | KPDG | ≤ 0.2
97 | VGTC | ≤ 0.2
98 | VYTN | ≤ 0.2
99 | QMAW | ≤ 0.2
100 | AQPD | ≤ 0.2
101 | ACTR | ≤ 0.2
102 | VPLR | ≤ 0.2
103 | QMPM | ≤ 0.2
104 | HMLH | ≤ 0.2

Row | Variant | one-hybrid fitness for binding NBS DNA
105 | RSSH | ≤ 0.2
106 | KPKA | ≤ 0.2
107 | GYEC | ≤ 0.2
108 | CNTI | ≤ 0.2
109 | RTHP | ≤ 0.2
110 | LTHV | ≤ 0.2
111 | HPMG | ≤ 0.2
112 | TYEK | ≤ 0.2
113 | DLAL | ≤ 0.2
114 | DIHG | ≤ 0.2
115 | YMYT | ≤ 0.2
116 | NNYA | ≤ 0.2
117 | WMKT | ≤ 0.2
118 | QRRH | 0.779
119 | RFTW | ≤ 0.2
120 | QVRD | ≤ 0.2
121 | QTYD | ≤ 0.2
122 | IGGV | ≤ 0.2
123 | TKNS | ≤ 0.2
124 | GSCG | ≤ 0.2
125 | SYKW | ≤ 0.2
126 | SLRP | ≤ 0.2
127 | DAKK | ≤ 0.2
128 | TVLM | ≤ 0.2
129 | TRWD | ≤ 0.2
130 | PPEV | ≤ 0.2

Row | Variant | one-hybrid fitness for binding NBS DNA
131 | VAPF | ≤ 0.2
132 | FRVT | ≤ 0.2
133 | NQFM | ≤ 0.2
134 | DRWE | ≤ 0.2
135 | QHPD | ≤ 0.2
136 | TLPA | ≤ 0.2
137 | KKPV | ≤ 0.2
138 | LARY | ≤ 0.2
139 | EYRT | ≤ 0.2
140 | GVNG | ≤ 0.2
141 | PKWC | ≤ 0.2
142 | YTKT | ≤ 0.2
143 | IKPV | ≤ 0.2
144 | QPVC | ≤ 0.2
145 | WSVT | ≤ 0.2
146 | TTDI | ≤ 0.2
147 | RYDV | ≤ 0.2
148 | LYKW | ≤ 0.2
149 | SLHN | ≤ 0.2
150 | YHDS | ≤ 0.2
151 | CHIP | ≤ 0.2
152 | PWIN | ≤ 0.2
153 | HKCR | ≤ 0.2
